Assay results reported in the supplement of paper PMC6089552.
Out of some 3,200 compounds screened, about 300 (9.4%) showed activity. Only a part is listed here, and it is no random draw.

System: A673/TR/shEF
Test: cell viability (LOESS-normalised, relative to median of negative controls) (log2 ratio); higher = more viable cells (less compound effect), active = hit call of the paper (over 3 MAD below the median)
Conditions: treatment time: 72 h
Summary of the method: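 A673/TR/shEF Ewing sarcoma cells (1,500 per well, 384-well plates) were grown with or without doxycycline to induce EWS-FLI1 shRNA knockdown, starting 24 h before compounds. Library compounds at two or more concentrations, with DMSO controls, were added for three days. Cell viability was read by CellTiter-Glo luminescence on an Envision reader, then LOESS-corrected per plate, divided by the median of negative controls and log2-transformed. Hits were wells at least three median absolute deviations from the median of all screened wells.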

[1] = 0.25 µM, library screen: screen1, EWS-FLI1 expression: high (no doxycycline)
[2] = 0.25 µM, library screen: screen1, EWS-FLI1 expression: low (doxycycline-induced shRNA knockdown)
[3] = 0.25 µM, library screen: screen2, EWS-FLI1 expression: high (no doxycycline)
[4] = 0.25 µM, library screen: screen2, EWS-FLI1 expression: low (doxycycline-induced shRNA knockdown)
[5] = 2.5 µM, library screen: screen1, EWS-FLI1 expression: high (no doxycycline)
[6] = 2.5 µM, library screen: screen1, EWS-FLI1 expression: low (doxycycline-induced shRNA knockdown)
[7] = 2.5 µM, library screen: screen2, EWS-FLI1 expression: high (no doxycycline)
[8] = 2.5 µM, library screen: screen2, EWS-FLI1 expression: low (doxycycline-induced shRNA knockdown)
[9] = 0.103 µM, library screen: screen3, EWS-FLI1 expression: high (no doxycycline)
[10] = 0.103 µM, library screen: screen3, EWS-FLI1 expression: low (doxycycline-induced shRNA knockdown)
[11] = 0.308 µM, library screen: screen3, EWS-FLI1 expression: high (no doxycycline)
[12] = 0.308 µM, library screen: screen3, EWS-FLI1 expression: low (doxycycline-induced shRNA knockdown)
[13] = 0.926 µM, library screen: screen3, EWS-FLI1 expression: high (no doxycycline)
[14] = 0.926 µM, library screen: screen3, EWS-FLI1 expression: low (doxycycline-induced shRNA knockdown)
[15] = 2.8 µM, library screen: screen3, EWS-FLI1 expression: high (no doxycycline)
[16] = 2.8 µM, library screen: screen3, EWS-FLI1 expression: low (doxycycline-induced shRNA knockdown)
[17] = 8.3 µM, library screen: screen3, EWS-FLI1 expression: high (no doxycycline)
[18] = 8.3 µM, library screen: screen3, EWS-FLI1 expression: low (doxycycline-induced shRNA knockdown)
[19] = 25 µM, library screen: screen3, EWS-FLI1 expression: high (no doxycycline)
[20] = 25 µM, library screen: screen3, EWS-FLI1 expression: low (doxycycline-induced shRNA knockdown)

Measured: cell viability (log2)

CN(C)CCC=C1c2ccccc2CCc2ccccc21
active: [3] -0.148
inactive: [1] 0.0816 | [2] 0.086 | [4] 0.138 | [5] 0.144 | [6] 0.0763 | [7] 0.0454 | [8] 0.0908

Cc1[nH]c(=O)c(C#N)cc1-c1ccncc1
inactive: [9] 0.0326 | [10] 0.119 | [3] 0.0624 | [4] 0.0852 | [11] 0.14 | [12] 0.0767 | [13] 0.132 | [14] 0.0633 | [7] 0.155 | [8] 0.096 | [15] 0.139 | [16] 0.0633 | [17] 0.128 | [18] 0.0675 | [19] 0.148 | [20] 0.0407

CC(C)[C@H](CO)Nc1nc(Nc2cccc(Cl)c2)c2ncn(C(C)C)c2n1
inactive: [3] 0.136 | [4] 0.0723 | [7] 0.0529 | [8] 0.0514

NC(=O)c1ncn([C@@H]2O[C@H](CO)[C@@H](O)[C@H]2O)n1
inactive: [9] 0.0479 | [10] -0.00301 | [1] 0.0242 | [2] -0.0375 | [3] 0.0942 | [4] 0.138 | [11] 0.00539 | [12] 0.013 | [13] 0.012 | [14] 0.0638 | [5] 0.0898 | [6] -0.0568 | [7] 0.148 | [8] 0.053 | [15] -0.0142 | [16] -0.0276 | [17] 0.0371 | [18] 0.0291 | [19] 0.13 | [20] 0.0392

CCC(CCC(C)C1CCC2C3CCC4CC(O)CCC4(C)C3CCC12C)C(C)C (stereo not drawn)
inactive: [1] 0.125 | [2] 0.0954 | [5] 0.131 | [6] 0.00436

CCOC(=O)[C@H](CCc1ccccc1)N[C@@H](C)C(=O)N1[C@H](C(=O)O)C[C@@H]2CCC[C@@H]21
inactive: [9] 0.119 | [10] 0.0378 | [11] 0.0824 | [12] 0.0741 | [13] 0.124 | [14] 0.0619 | [15] 0.108 | [16] 0.1 | [17] 0.105 | [18] 0.0239 | [19] 0.0963 | [20] 0.1

CCOc1ccc2c(c1)C(C)=CC(C)(C)N2
inactive: [1] 0.0986 | [2] 0.15 | [5] 0.163 | [6] 0.295

C#CCCCCCCCCCCCC(O)CC(O)CO.C=CCCCCCCCCCCCC(O)CC(O)CO (stereo not drawn)
inactive: [1] -0.0366 | [2] 0.0109 | [5] 0.0828 | [6] -0.0815

CCCCCCCCCCCCCCCC(=O)O[C@H](CC(=O)[O-])C[N+](C)(C)C
active: 25 µM, library screen: screen1, EWS-FLI1 expression: high (no doxycycline) -0.454 | 25 µM, library screen: screen1, EWS-FLI1 expression: low (doxycycline-induced shRNA knockdown) -0.672

Cn1c(=O)c2[nH]c(C3CCCC3)nc2n(C)c1=O
inactive: [1] 0.052 | [2] 0.108 | [3] 0.109 | [4] 0.0676 | [5] 0.0537 | [6] 0.132 | [7] 0.149 | [8] 0.131

CC(C)COCC(CN(Cc1ccccc1)c1ccccc1)N1CCCC1 (stereo not drawn)
inactive: [3] 0.21 | [4] 0.11 | [7] 0.0761 | [8] 0.0529

Clc1ccc(CN2CCN(Cc3c[nH]c4ccccc34)CC2)cc1
inactive: [1] 0.142 | [2] 0.175 | [5] 0.152 | [6] 0.116

COC1=CC(=O)OC(CCc2ccc(OC)c(OC)c2)C1 (stereo not drawn)
inactive: [1] 0.144 | [2] -0.00163 | [5] 0.181 | [6] 0.0406

COc1ccc(C2COc3c(ccc(O)c3OC)C2)c(OC)c1O (stereo not drawn)
inactive: [1] 0.108 | [2] 0.0205 | [5] 0.0667 | [6] -0.00772

CN[C@H](CC(C)C)C(=O)N[C@H]1C(=O)N[C@@H](CC(N)=O)C(=O)N[C@H]2C(=O)N[C@H]3C(=O)N[C@H](C(=O)N[C@H](C(=O)O)c4cc(O)cc(O)c4-c4cc3ccc4O)[C@H](O)c3ccc(c(Cl)c3)Oc3cc2cc(c3O[C@@H]2O[C@H](CO)[C@@H](O)[C@H](O)[C@H]2O[C@H]2C[C@](C)(N)[C@H](O)[C@H](C)O2)Oc2ccc(cc2Cl)[C@H]1O
inactive: [1] 0.0548 | [2] 0.0418 | [3] 0.165 | [4] 0.049 | [5] 0.0898 | [6] 0.0418 | [7] 0.202 | [8] 0.119

CNS(=O)(=O)Cc1ccc2[nH]cc(CCN(C)C)c2c1
inactive: [9] 0.0269 | [10] 0.00863 | [11] -0.0124 | [12] 0.0116 | [13] 0.0054 | [14] 0.0629 | [15] -0.00592 | [16] 0.0368 | [17] -0.0199 | [18] 0.0603 | [19] 0.00415 | [20] 0.0258
